Laboratory results taken from PubChem BioAssay AID1345083 (National Center for Advancing Translational Sciences (NCATS), 2018).
The campaign covered roughly 94,000 compounds. About 6,200 (6.6%) were called active. Inconclusive results, whose numbers are uncertain, are shown with a selection of clear calls. The call rests on the fitted dose curve; in most records, active means well fitted inhibition curve with a large enough effect; inconclusive means small, poorly fitted or top-dose-only effect; inactive means flat fitted curve, though single readings scatter. Potencies beside an inconclusive call are fits to weak or partial responses and may not hold up.

test: Cytotoxic Profiling in HEK 293 Cell Line of Diverse Libraries Using Quantitative High-Throughput Screening; conditions: HEK 293 viability, ATP luminescence (CellTiter-Glo), 48-72 h; series mostly up to 115 µM; further: nearly all actives have a fitted effect of over 60% in size
In short: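 HEK 293 cells at 250 cells/well were exposed to compounds by pintool transfer for 48 or 72 hr at 37 degree Celsius, 5% CO2. Viability was read as ATP-coupled luminescence with CellTiter-Glo after 10 min at room temperature.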
Potency means the concentration at half of the fitted maximal effect; tags describe the fitted curve by direction and shape.

| Structure (SMILES) | Potency |
| --- | --- |
| COc1cccc(-c2cc(C(=O)NC3CC3)c3cnn(C)c3n2)c1 | inconclusive: 44.7 µM [inhibitor, partial curve, poor fit] |
| COc1ccc(C2Cn3nnc(C(=O)N4CCN(C(=O)c5ccc(C)s5)CC4)c3CO2)cc1 (stereo not drawn) | inconclusive: 35.5 µM [inhibitor, partial curve, poor fit] |
| Cc1cc(=O)n(CC(=O)Nc2cccc(C#N)c2)c(-c2ccc(F)cc2)n1 | inconclusive: 50.1 µM [inhibitor, partial curve, poor fit] |
| O=C1Nc2ccccc2CC12CCN([S+](=O)([O-])c1cccc(C(F)(F)F)c1)CC2 | inconclusive: 39.8 µM [inhibitor, partial curve, poor fit] |
| O=C(NC1CCN(c2ccc3nnc(C4CC4)n3n2)C1)N1CCOCC1 (stereo not drawn) | inactive |
| Cc1cc(NC(=O)c2ccc3c(c2)N(C)C2CCCCN2C3=O)ccc1F (stereo not drawn) | inconclusive: 50.1 µM [inhibitor, partial curve, poor fit] |
| CC(C)C[C@@H]1N[C@H](C(=O)NCc2ccc(C#N)cc2)Cc2c[nH]c3cccc1c23 | active: 56.2 µM |
| Cc1ccc(CNC(=O)N2CCCCCNC(=O)[C@@H]3CCC[C@@H]32)cc1 | inconclusive: 44.7 µM [inhibitor, partial curve, poor fit] |
| COc1ccc(-c2cc(C[C@@H]3CC[C@H](O)[C@@H](CNC4CCOCC4)O3)no2)cc1 | inactive |
| COc1cccc(-c2cc3c(ccn3C(C)C)c(C(=O)NCc3c(C)cc(C)[nH]c3=O)n2)c1 | inconclusive: 39.8 µM [inhibitor, full curve, poor fit] |
| O=Cc1cccc(-c2cncc(C(=O)O)c2)c1 | inactive |
| O=C(NC1CCCCC1)c1ccc2oc(-c3cccnc3Cl)nc2c1 | inactive |
| CN(C(=O)Cn1cccc1-c1nc(-c2ccc3c(c2)OCO3)no1)c1ccccc1 | inconclusive: 35.5 µM [inhibitor, partial curve, poor fit] |
| CCn1ncc(N2CCCC(CC(=O)NCc3ccc(Cl)cc3)C2)cc1=O (stereo not drawn) | inconclusive: 10 µM [inhibitor, full curve, poor fit] |
| CCn1cc(-c2nc3cc(S(=O)(=O)NC(C)C)ccc3n2C(C)C)cn1 | inconclusive: 100 µM [inhibitor, single point] |
| C=CCNC(=O)c1cnn2c1CN(C(=O)c1cccnc1)CC2 | inactive |
| COc1ccc(NC(=O)CN2C(=O)NC3(CCOCC3)C2=O)cc1OC | inactive |
| COc1cccc(C(=O)N2CCc3onc(-c4cccc(F)c4)c3C2)c1OC | active: 20 µM |
| COc1cccc(CC(=O)N2CCCC(c3noc(COc4ccccc4F)n3)C2)c1 (stereo not drawn) | inconclusive: 50.1 µM [inhibitor, partial curve, poor fit] |
| COc1ccc(-c2cc(N3CCCC(NC(=O)Cc4ccccc4)C3)n[nH]2)cc1 (stereo not drawn) | inconclusive: 50.1 µM [inhibitor, partial curve, poor fit] |
| Cc1ccccc1N1Cc2c(NCCc3ccc(F)cc3)ncnc2N(C)CC1=O | inconclusive: 50.1 µM [inhibitor, partial curve, poor fit] |
| COCC(=O)N(C1CCOCC1)C1CCN(C(=O)Cc2ccccc2Cl)CC1 | inconclusive: 89.1 µM [inhibitor, single point] |
| Cc1nn2c(NCCc3ncc[nH]3)cc(-c3ccccc3)nc2c1C | inconclusive: 89.1 µM [inhibitor, single point] |

| Structure (SMILES) | Potency |
| --- | --- |
| CCC(=O)N(C1CCOCC1)C1CCN(S(=O)(=O)c2ccc(F)cc2F)CC1 | inactive |
| O=C1CCC2(CCNCC2)CN1CCCNc1cccnc1 | inactive |
| FC1CCN(Cc2cn(Cc3ccccc3)nc2-c2cc3ccccc3o2)CC1 | active: 31.6 µM |
| Cc1ccccc1CN1Cc2nc(-c3ccsc3)ccc2OCC1=O | active: 89.1 µM |
| COc1ccc(-c2noc(-c3cccn3CC(=O)N(C)c3ccc(F)cc3)n2)cc1F | inconclusive: 31.6 µM [inhibitor, full curve, poor fit] |
| O=C(NC1CCCC1)N1CCCC(c2nn(-c3ccccn3)c(=O)[nH]2)C1 (stereo not drawn) | inactive |
| O=C(NCc1cccc(Cl)c1)c1ccc2nnc(-c3cccnc3)n2c1 | inconclusive: 35.5 µM [inhibitor, full curve] |
| Cc1noc(-c2cccs2)c1C(=O)NCc1ccccc1Cl | inconclusive: 25.1 µM [inhibitor, partial curve] |
| COc1ccc(C[C@H](NC(=O)C2=C[C@@H](NC(=O)Nc3ccc(C)cc3)[C@@H](O)[C@H](O)C2)C(N)=O)cc1 | inactive |
| Cc1nc(N2CCC(C(=O)NCc3ccc(C(C)C)cc3)CC2)cc(C(F)(F)F)n1 | active: 31.6 µM |
| Cc1cccc(-c2nocc2CCC(=O)NCc2ccc(F)cc2F)c1 | inconclusive: 89.1 µM [inhibitor, single point] |
| COc1ccc(CNC(=O)N2CC3CN(C)CC(C2)O3)cc1 | inactive |
| COc1cccc(-c2cc3c(ccn3C)c(C(=O)NCc3c(C)cc(C)[nH]c3=O)n2)c1 | inconclusive: 100 µM [inhibitor, partial curve] |
| Cc1ccccc1-c1ccnc(-c2nnc(C)n2C(C)C)c1 | inconclusive: 112 µM [inhibitor, partial curve] |
| O=C(c1ccc(F)cc1F)N1CCC(Cc2nc(-c3cnccn3)no2)CC1 | inactive |
| O=C1Cc2c(-c3cc4ccccc4o3)n[nH]c2CN1Cc1ccccc1 | inconclusive: 70.8 µM [inhibitor, partial curve] |
| Cc1ccc(NC(=O)Cn2c(N3CCC(C)CC3)nc(C)cc2=O)cc1 | inconclusive: 35.5 µM [inhibitor, partial curve] |
| CCCc1nnc([C@H]2CCN(C(=O)COC)C2)o1 | inactive |
| COCC1CN(C2CCC2)CC12CCN(C(=O)c1ccc(OC)cc1)CC2 (stereo not drawn) | inconclusive: 89.1 µM [inhibitor, single point] |
| COc1ccc(Nc2ccnc(N3CCC(NC(=O)Nc4ccccc4)CC3)n2)cc1 | inconclusive: 56.2 µM [inhibitor, partial curve, poor fit] |
| CSc1ccc(CNC(=O)c2noc(-c3ccc(C)cc3)n2)cc1 | inactive |
| CN(c1ccccc1)c1ccc2c(n1)CN(Cc1ccccc1)C(=O)CO2 | active: 89.1 µM |
| Fc1ccc(CN2CCOC[C@H]2c2ncc(-c3ccc(Cl)s3)[nH]2)cc1 | active: 79.4 µM |

| Structure (SMILES) | Potency |
| --- | --- |
| Cc1cc2nc3n(c(=O)c2n1CC(=O)Nc1ccc(Br)cc1F)CCC3 | inactive |
| CN(Cc1ccc(F)cc1)c1ccc2ncc(Nc3ccc4c(c3)OCCO4)n2n1 | active: 39.8 µM |
| COCc1cc(C[C@@H]2CC[C@H](O)[C@@H](CNC3CCN(C(C)=O)CC3)O2)no1 | inactive |
| COCCCNC(=O)c1ccc2oc(-c3ccnc(Cl)c3)nc2c1 | inconclusive: 50.1 µM [inhibitor, partial curve, poor fit] |
| COc1ccc(NC(=O)Nc2cccc(-c3ccc(N4CCOCC4)nn3)c2)cc1 | inconclusive: 15.8 µM [inhibitor, full curve, poor fit] |
| N#Cc1ccccc1NC(=O)c1cc2n(n1)CC(c1ccc(Br)cc1)OC2 (stereo not drawn) | inconclusive: 39.8 µM [inhibitor, full curve, poor fit] |
| Cc1oc(-c2cccc(Oc3ccccc3)c2)nc1CN1CCOC(CCN)C1 (stereo not drawn) | active: 28.2 µM |
| COc1cccc(Nc2cnc3ccc(-c4cccc(CO)c4)nn23)c1 | inconclusive: 112 µM [inhibitor, partial curve, poor fit] |
| O=C(c1cccs1)N1CC(Oc2cccc(-c3nc(-c4ccccc4)no3)c2)C1 | inconclusive: 44.7 µM [inhibitor, partial curve, poor fit] |
| CCNc1ccnc(N2CCN(Cc3cccc(OC)c3)C(CCO)C2)n1 (stereo not drawn) | inconclusive: 20 µM [inhibitor, partial curve, poor fit] |
| COCCNC(=O)[C@@H]1C[C@H](Oc2ccccc2)CN1C(=O)c1cccnc1C | inactive |
| O=C(c1cccc2cnccc12)N1CCC2(CC1)Nc1ccccc1NC2=O | inconclusive: 79.4 µM [inhibitor, partial curve] |
| Cc1nc(N2CCC(NC(=O)c3ccccc3Cl)CC2)cc(C(F)(F)F)n1 | inconclusive: 39.8 µM [inhibitor, partial curve] |
| NC(=O)N1CCCC(C(=O)N2CCN(Cc3cccc(O)c3)CC2)C1 (stereo not drawn) | inactive |
| Clc1ccccc1C1Cn2cnc(-c3nc(-c4ccccc4)no3)c2CO1 (stereo not drawn) | inactive |
| CN1CCCC2(C1)CN(Cc1cccnc1)c1ccc(C(=O)Nc3ccc(F)cc3)cc12 (stereo not drawn) | inconclusive: 126 µM [inhibitor, single point] |
| Cc1cnc(CC2CCN(S(=O)(=O)c3ccccc3)CC2)n1Cc1ccc(F)cc1 | inconclusive: 50.1 µM [inhibitor, partial curve, poor fit] |
| O=C(CCCc1ccccc1)Nc1ccc(OC2CCNCC2)nc1 | inconclusive: 56.2 µM [inhibitor, partial curve, poor fit] |
| Cn1ncc2c(C(=O)NCC(=O)OC(C)(C)C)cc(-c3ccccc3C(F)(F)F)nc21 | active: 44.7 µM |
| COc1cccc(C(=O)NC2CCN(c3cc(-c4ccc(F)cc4)[nH]n3)CC2)c1OC | inconclusive: 50.1 µM [inhibitor, partial curve, poor fit] |
| COC(=O)CNC(=O)C1CN(S(=O)(=O)c2cccs2)CC12CCCCC2 (stereo not drawn) | inactive |
| Cc1ccc(S(=O)(=O)Cc2noc([C@@H]3C[C@@H](O)CN3Cc3ccc(C(F)(F)F)cc3)n2)cc1 | inconclusive: 79.4 µM [inhibitor, partial curve, poor fit] |
